From publication PMC6919601, “Identification of Plasmodium dipeptidyl aminopeptidase allosteric inhibitors by high throughput screening” (PLoS ONE, 2019) come the findings set out here.

The whole screen tested about 110,000 compounds, of which about 230 (0.21%) showed an effect of 50% or more. The list shows a part of the results.
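Note: 30 min substrate incubation versus DMSO and 10 µM JCP410 controls.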

Chain of DPAP1 (Q8IIJ9 whole entry, looked up): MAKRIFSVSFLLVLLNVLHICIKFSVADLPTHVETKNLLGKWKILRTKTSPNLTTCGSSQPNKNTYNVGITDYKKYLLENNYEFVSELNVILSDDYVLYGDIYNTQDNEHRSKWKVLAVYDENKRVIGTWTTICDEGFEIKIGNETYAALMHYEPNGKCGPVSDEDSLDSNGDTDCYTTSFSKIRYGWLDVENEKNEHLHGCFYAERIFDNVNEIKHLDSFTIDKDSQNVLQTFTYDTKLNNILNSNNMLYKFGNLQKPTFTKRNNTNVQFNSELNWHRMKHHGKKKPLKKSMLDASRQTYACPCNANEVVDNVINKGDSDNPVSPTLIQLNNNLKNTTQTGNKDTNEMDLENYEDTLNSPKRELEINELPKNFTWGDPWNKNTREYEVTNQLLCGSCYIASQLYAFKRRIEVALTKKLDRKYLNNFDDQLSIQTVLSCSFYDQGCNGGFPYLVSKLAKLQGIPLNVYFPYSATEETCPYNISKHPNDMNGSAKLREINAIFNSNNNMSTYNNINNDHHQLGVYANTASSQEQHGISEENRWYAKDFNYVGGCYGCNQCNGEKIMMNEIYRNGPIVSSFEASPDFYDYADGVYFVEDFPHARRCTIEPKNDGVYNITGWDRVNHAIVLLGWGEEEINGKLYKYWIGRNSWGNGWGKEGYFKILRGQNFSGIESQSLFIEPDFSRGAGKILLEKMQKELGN

The test has as its target DPAP1 (Plasmodium falciparum, UniProt Q8IIJ9). The test is described as follows: primary screen, percent inhibition; read by cleavage of a fluorogenic dipeptide substrate; higher = more effect of the substance. Also noted: species or system P. falciparum D10 trophozoite lysates; single well.
Regarding `Cc1cc(=O)n2nc(N3CCCC(C(=O)NC4CCCCCC4)C3)sc2n1` (centres unmarked), the “% Inhibition @ 10 uM” value is listed as 1.38%. As for `COc1cccc(-c2nn(C)c3sc(C(=O)NCCN4CCOCC4)cc23)c1`, the “% Inhibition @ 10 uM” value stood at 4.51%. Then `c1ccc(CCn2c(C3CCCO3)nc3ccccc32)cc1` (centres unmarked), with -1.22%; and `O=C(NCc1ccccc1Cl)C1CCN(c2ncnc3c2sc2cccc(F)c23)CC1`, with -5.15%. To `CC(C)OCCCNC(=O)C1CCN(c2nnc(-n3cccc3)s2)CC1` belongs 1.15%.

On to `Cn1c(CCNC(=O)c2ccc(F)cc2)nc2ccccc21`, for which the “% Inhibition @ 10 uM” value was 4.06%.

In the case of `Cc1ccc(S(=O)(=O)/N=C2\C=C(N3CCOCC3)C(=O)c3ccccc32)cc1`, the “% Inhibition @ 10 uM” value is 11.8%. `Cc1cc(Br)ccc1OCC(=O)Nc1ccc(F)cc1F`: the “% Inhibition @ 10 uM” value is 2.84%. With `CN(C)c1ccc(CN2CCSCC2)cc1`, the “% Inhibition @ 10 uM” value was -2.56%. Then `CCOC(=O)N1CCN(Cc2sccc2C)CC1`, with 0.472%. To `Cc1ccc(-c2ccc(CCC(=O)O)o2)cc1` belongs 1.52%; to `COc1ccc(CN2CCN(S(=O)(=O)c3ccc(C)cc3)CC2)c(OC)c1OC`, -2.73%; to `CC(C)Oc1ccc(CNCc2c(C(=O)O)n(Cc3ccc(Cl)cc3)c3ccccc23)cc1`, -1.38%. In the case of `O=C(O)C1C2CCC(O2)C1C(=O)Nc1ccc(F)cc1` (centres unmarked), the “% Inhibition @ 10 uM” value was -2.29%.

Regarding `Cc1cc(Cl)ccc1OCCCC(=O)NCc1cccnc1`, the “% Inhibition @ 10 uM” value is -5.57%. Take `COc1cc(C2c3c(oc4ccc(F)cc4c3=O)C(=O)N2c2nccs2)ccc1OCCC(C)C` (centres unmarked): the “% Inhibition @ 10 uM” value was 0.415%. For the compound `O=C(CSc1nnnn1-c1ccccc1)Nc1ncc2c(n1)CC(c1ccco1)CC2=O` (centres unmarked), the “% Inhibition @ 10 uM” value is 4.94%. Turning to `O=C(c1ccccc1)N1CCCOC1c1ccccc1` (centres unmarked), the “% Inhibition @ 10 uM” value is 2.09%. `Cc1nn(-c2ccccc2)c(-n2cccc2)c1C(=O)N1CCC(N2CCCCC2)CC1`: the “% Inhibition @ 10 uM” value is given as 1.8%. With `CCOCCCNC(=O)C1CCC(CNS(=O)(=O)c2cccc3nsnc23)CC1` (centres unmarked), the “% Inhibition @ 10 uM” value was -0.465%. On to `COc1ccc(C2CC(O)=C/C(=N/CC(C)C)C2)cc1` (centres unmarked), for which the “% Inhibition @ 10 uM” value is listed as -4.74%. Consider `CC1=CN2C(=N)/C(=C/c3cc(C)n(-c4cc(Cl)ccc4C)c3C)C(=O)N=C2S1`, for which the “% Inhibition @ 10 uM” value was determined as 5.25%. Then `C=CCn1/c(=N\C(=O)CC)n(C)c2ccccc21`, with -7.81%. In the case of `Cc1ccc2nc(C)cc(N3CCCC3)c2c1`, the “% Inhibition @ 10 uM” value stood at 0.121%.

Regarding `Cc1cc(C)nc(SCc2nnc(SCC(N)=O)n2C)n1`, the “% Inhibition @ 10 uM” value is recorded as 4.41%. To `CCOC(=O)C1=CN(Cc2ccc(F)cc2)C=C(C(=O)OCC)C1c1ccc(OC)c(O)c1` belongs -10.9%; to `CC1Cc2cc(C(=O)C3=C(O)C(=O)N(CCN4CCOCC4)C3c3ccncc3)ccc2O1` (centres unmarked), -3.69%; to `CCCn1c2ccccc2c2cnn(CC(=O)Nc3ccccn3)c(=O)c21`, 0.244%.

For the compound `Cc1cccc(C)c1NC(=O)CSCCN`, the “% Inhibition @ 10 uM” value is on record as -5.74%. For `Cc1nnc2c(NC3CCCC3)nc3ccc(C(=O)c4ccccc4)cc3n12`, the “% Inhibition @ 10 uM” value is reported as -2.5%. For `Cn1ncc(Cl)c1C(=O)N1CCN(C(=O)c2ccco2)CC1`, the “% Inhibition @ 10 uM” value turned out to be 5.87%.

Take `CC1(C)CC(=O)C2=C(C1)NC(=O)CC2c1ccccc1[N+](=O)[O-]` (centres unmarked): the “% Inhibition @ 10 uM” value came to 4.52%. To `O=Cc1c(C(=O)O)[nH]c2ccccc12` belongs 3.54%; to `CCOc1ccc(NC(=O)C2(C)CC3C=CC2C3)cc1` (centres unmarked), 4.89%. Then `CC(c1nc2ccccc2[nH]1)N1CCCCC1` (centres unmarked), with 6.7%; and `Cc1ccc(C(=O)Nc2ccc(C)c(C)c2)cc1`, with 2.46%; and `O=C(CCc1ccccc1)Nc1nnc(S(=O)(=O)NCc2ccccc2)s1`, with -3.51%. For `Cc1sc(N)nc1-c1ccc(CC(C)C)cc1`, the “% Inhibition @ 10 uM” value was -3.94%.

`c1ccc(C(c2ccccc2)c2noc(CSc3nnnn3-c3ccccc3)n2)cc1`: the “% Inhibition @ 10 uM” value is on record as -2.14%.

As for `COc1cc(CN2CCN(Cc3ccc(Br)cc3)CC2)cc(OC)c1OC`, the “% Inhibition @ 10 uM” value turned out to be 1.78%. On to `CCCCNC(=O)NS(=O)(=O)c1cnccc1Sc1c(Cl)cccc1Cl`, for which the “% Inhibition @ 10 uM” value is reported as 0.643%. To `CC[N+]1(Cc2ccccc2)C2=C(CN(C)CC2)c2ccccc21` (centres unmarked) belongs 3.79%; to `Cc1ccc(C2=NC(=O)C(NC(=O)c3ccccc3)(C(F)(F)F)N2)cc1` (centres unmarked), 0.413%; to `CCOc1cc(C)c(S(=O)(=O)NCCN2CCOCC2)cc1C`, 1.88%.

Take `O=S(=O)(Cc1ccccc1)NCc1ccco1`: the “% Inhibition @ 10 uM” value is -2.35%. As for `C(=N\Cc1cccnc1)/c1c2ccccc2cc2ccccc12`, the “% Inhibition @ 10 uM” value was -3.06%. To `Cc1cc2cc(CNS(C)(=O)=O)ccc2n1C` belongs -1.89%; to `CC1=C(C(=O)OCc2ccccc2)C(c2cccnc2)C2=C(O)CC(C)(C)CC2=N1` (centres unmarked), 3%; to `CCc1ccc(N2CC(C(=O)Nc3ccc(F)cc3)CC2=O)cc1` (centres unmarked), 5.09%. For the compound `O=C(NCc1ccco1)/C(=C/c1ccc2c(c1)OCO2)NC(=O)c1ccco1`, the “% Inhibition @ 10 uM” value amounted to 23.4%. On to `CN1C(=O)NC(NC(=O)C2CC2)(C(F)(F)F)C1=O` (centres unmarked), for which the “% Inhibition @ 10 uM” value is -5.2%. To `Cc1c(Cl)cccc1N(CC(=O)Nc1ccc2c(c1)OCO2)S(=O)(=O)c1ccccc1` belongs 5.03%. Regarding `Cc1nn(C)c(C(=O)Nc2sc(C)c(C)c2C#N)c1Cl`, the “% Inhibition @ 10 uM” value is given as 3.05%. As to `COc1cc(C2CC(c3c(O)cc(C)oc3=O)=Nc3ccccc3S2)ccc1O` (centres unmarked), the “% Inhibition @ 10 uM” value is on record as -0.415%.

`Cc1ccc(OCC(=O)Nc2ccc(C(=O)c3ccccc3)cc2)cc1`: the “% Inhibition @ 10 uM” value was found to be 0.795%.

For `CC(C)CN(CC(C)C)C(=O)c1cc(S(=O)(=O)N2CCOCC2)cn1C`, the “% Inhibition @ 10 uM” value is 5%.

As to `c1ccc2c(c1)nnn2Cc1nnc2sc(-c3ccncc3)nn12`, the “% Inhibition @ 10 uM” value came out at 4.47%. As to `CCOC(=O)Nc1ccc2c(c1)N(C(=O)CN1CCN(C)CC1)c1ccccc1CC2`, the “% Inhibition @ 10 uM” value is reported as -8.03%. On to `O=C(COc1ccc2ccccc2c1)Nc1ccc(S(=O)(=O)N2CCCCCC2)cc1`, for which the “% Inhibition @ 10 uM” value is on record as -2.16%. With `COc1ccc(-c2c(C)nn3c(N4CCC5(CC4)OCCO5)cc(C)nc23)cc1OC`, the “% Inhibition @ 10 uM” value was -1.89%. `O=C(NCc1ccccc1)c1ccc(Br)c(S(=O)(=O)N2CCOCC2)c1`: the “% Inhibition @ 10 uM” value is recorded as 1.63%. With `CC/N=C1\SC(C(=O)NCCc2ccccc2)CC(=O)N1CC` (centres unmarked), the “% Inhibition @ 10 uM” value was found to be 1.82%. As to `O=C1CSC(c2ccccc2[N+](=O)[O-])N1CC12CC3CC(CC(C3)C1)C2` (centres unmarked), the “% Inhibition @ 10 uM” value is -2.44%. Then `CC(C)Oc1ccccc1/C=C/c1nc(O)c([N+](=O)[O-])c(O)n1`, with 2.6%. As to `CCCCNC(=O)CSc1nc2sc(C(=O)OCC)c(C)c2c(=O)n1Cc1ccco1`, the “% Inhibition @ 10 uM” value is -2.74%.
